Lines with a small IC50 respond at low doses; where the fit passes the top or lowest dose, that dose stands as a limit. AUC sums up the same curve from the lowest dose to the 256-fold higher top dose: 1 means no effect, lower means more sensitive. The top dose, if marked as inferred, is not printed in the source and was worked back from the curve model.
Compound: CCCCCCCCCCCC1=C(O)C(=O)C=C(O)C1=O [Embelin]
Test: Viability of human cancer cell lines after 72 h of drug (GDSC screen)
Conditions: top dose 32 µM; top dose inferred
Protocol: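 Human cancer cell lines in 384-well plates, medium with 10% serum, drug for 72 h over a 256-fold dose range (nine 2-fold or five 4-fold steps up to the top dose). Adherent lines were fixed and stained with the nucleic acid dye Syto60, suspension lines read with resazurin; signal relative to control wells, capped at 0 and 100%. One two-parameter sigmoid per drug and line, fitted in a mixed model over all curves with the slope shared within a line.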

Cell Line | AUC | IC50
CAL-33 (head and neck, adherent) | 0.806 | 16.2 µM
M059J (glioma, adherent) | 0.81 | 18.7 µM
CPC-N (small cell lung carcinoma, suspension) | 0.962 | > 32 µM
23132-87 (stomach, adherent) | 0.803 | 16.5 µM
LU-134-A (small cell lung carcinoma, suspension) | 0.916 | > 32 µM
GCT (soft tissue, adherent) | 0.798 | 14 µM
BHY (head and neck, adherent) | 0.665 | 5.78 µM
U031 (kidney, adherent) | 0.833 | 21.7 µM
OSC-20 (head and neck, adherent) | 0.684 | 7.29 µM
HCC2218 (breast, suspension) | 0.783 | 17.2 µM
OCI-M1 (acute myeloid leukaemia, suspension) | 0.986 | > 32 µM
KGN (ovary, adherent) | 0.573 | 3.3 µM
NCI-H2347 (lung adenocarcinoma, adherent) | 0.715 | 9.36 µM
NCI-H1836 (small cell lung carcinoma, suspension) | 0.929 | > 32 µM
L-428 (Hodgkin lymphoma, suspension) | 0.654 | 5.05 µM
HD-MY-Z (Hodgkin lymphoma, adherent) | 0.837 | 21.6 µM
JHH-6 (liver, adherent) | 0.802 | 16.1 µM
MY-M12 (leukaemia, suspension) | 0.769 | 13.7 µM
HGC-27 (stomach, adherent) | 0.697 | 6.45 µM
GRANTA-519 (B-cell lymphoma, suspension) | 0.873 | 25.6 µM
NCI-H226 (lung squamous cell carcinoma, adherent) | 0.822 | 20 µM
MFE-280 (endometrium, adherent) | 0.762 | 14.4 µM
BB30-HNC (head and neck, adherent) | 0.643 | 4.94 µM
NCI-H292 (lung adenocarcinoma, adherent) | 0.851 | > 32 µM
KARPAS-231 (B-cell leukaemia, suspension) | 0.679 | 5.55 µM
HN (head and neck, adherent) | 0.868 | 26.1 µM

Cell Line | AUC | IC50
C32 (melanoma, adherent) | 0.513 | 2.17 µM
Hs940-T (melanoma, adherent) | 0.699 | 8.24 µM
TE-11 (oesophagus, adherent) | 0.876 | 26.9 µM
SW1463 (large intestine, adherent) | 0.907 | > 32 µM
NCI-H322M (lung adenocarcinoma, suspension) | 0.986 | > 32 µM
PFSK-1 (medulloblastoma, adherent) | 0.808 | 17.8 µM
LCLC-103H (large cell lung carcinoma, adherent) | 0.72 | 7.85 µM
TE-6 (oesophagus, adherent) | 0.818 | 22.2 µM
D-263MG (glioma, adherent) | 0.856 | > 32 µM
LB831-BLC (bladder, adherent) | 0.733 | 9.35 µM
HT (B-cell lymphoma, suspension) | 0.677 | 5.94 µM
HT-1197 (bladder, adherent) | 0.836 | 27 µM
HCC1954 (breast, adherent) | 0.779 | 15.3 µM
JSC-1 (B-cell lymphoma, suspension) | 0.798 | 15 µM
MC116 (B-cell lymphoma, suspension) | 0.505 | 2.06 µM
RPMI-8866 (chronic myeloid leukaemia, suspension) | 0.747 | 9.61 µM
201T (lung adenocarcinoma, adherent) | 0.697 | 8.33 µM
HT-1080 (fibrosarcoma, adherent) | 0.649 | 4.93 µM
MV-4-11 (leukaemia, suspension) | 0.883 | 23.8 µM
NCI-H441 (lung adenocarcinoma, adherent) | 0.676 | 7.63 µM
LC-1-sq (lung squamous cell carcinoma, adherent) | 0.84 | 27.7 µM
NCI-H1792 (lung adenocarcinoma, adherent) | 0.859 | 22.4 µM
OCI-AML3 (acute myeloid leukaemia, suspension) | 0.922 | > 32 µM
LOUCY (T-cell lymphoblastic leukaemia, suspension) | 0.606 | 3.7 µM
JHU-029 (head and neck, adherent) | 0.685 | 7.5 µM
OCUM-1 (stomach, adherent) | 0.678 | 6.65 µM

Cell Line | AUC | IC50
PANC-03-27 (pancreas, adherent) | 0.765 | 11 µM
SW1088 (glioma, adherent) | 0.776 | –
PCI-38 (head and neck, adherent) | 0.898 | > 32 µM
NCI-H1793 (lung adenocarcinoma, adherent) | 0.926 | > 32 µM
KP-1N (pancreas, adherent) | 0.75 | 10.9 µM
SW1783 (glioma, adherent) | 0.774 | 11.3 µM
COLO-800 (melanoma, adherent) | 0.837 | 20.5 µM
RH-1 (rhabdomyosarcoma, adherent) | 0.801 | 12.7 µM
769-P (kidney, adherent) | 0.743 | 10.7 µM
RKN (ovary, adherent) | 0.836 | 23.1 µM
H3118 (head and neck, adherent) | 0.66 | 5.82 µM
H2804 (mesothelioma, adherent) | 0.771 | 13.5 µM
8505C (thyroid, adherent) | 0.728 | 9.28 µM
KOPN-8 (B-cell leukaemia, suspension) | 0.717 | 7.38 µM
COR-L279 (small cell lung carcinoma, suspension) | 0.936 | > 32 µM
Ramos-2G6-4C10 (Burkitt lymphoma, suspension) | 0.831 | 16.4 µM
NCI-H2085 (lung adenocarcinoma, adherent) | 0.719 | 8.88 µM
AGS (stomach, adherent) | 0.742 | 9.03 µM
ESS-1 (endometrium, adherent) | 0.734 | 8.54 µM
Farage (B-cell lymphoma, suspension) | 0.745 | 8.55 µM
DG-75 (Burkitt lymphoma, suspension) | 0.963 | > 32 µM
YT (lymphoid neoplasm, suspension) | 0.753 | 9.26 µM
NCI-H748 (small cell lung carcinoma, suspension) | 0.911 | > 32 µM
NCI-SNU-5 (stomach, suspension) | 0.927 | > 32 µM
DK-MG (glioma, adherent) | 0.963 | > 32 µM
CAS-1 (glioma, adherent) | 0.802 | 22.9 µM

Cell Line | AUC | IC50
CGTH-W-1 (thyroid, adherent) | 0.81 | –
TE-8 (oesophagus, adherent) | 0.782 | 14.4 µM
PC-3 [JPC-3] (lung adenocarcinoma, adherent) | 0.8 | 21.8 µM
SW954 (urogenital system, adherent) | 0.78 | 13.3 µM
OPM-2 (myeloma, suspension) | 0.94 | > 32 µM
NCI-H1944 (lung adenocarcinoma, adherent) | 0.737 | 10 µM
KM12 (large intestine, adherent) | 0.759 | 12.1 µM
Ca-Ski (cervix, adherent) | 0.831 | 23.8 µM
HCC1500 (breast, adherent) | 0.902 | > 32 µM
KNS-81-FD (glioma, adherent) | 0.805 | 23.6 µM
IST-SL1 (small cell lung carcinoma, semi-adherent) | 0.889 | > 32 µM
TK10 (kidney, adherent) | 0.856 | > 32 µM
LU-165 (small cell lung carcinoma, suspension) | 0.936 | > 32 µM
CP50-MEL-B (melanoma, adherent) | 0.857 | 25.5 µM
TOV-21G (ovary, adherent) | 0.929 | > 32 µM
UACC-893 (breast, adherent) | 0.844 | > 32 µM
JHH-4 (liver, adherent) | 0.698 | 7.18 µM
LS-411N (large intestine, adherent) | 0.703 | 8.52 µM
OSC-19 (head and neck, adherent) | 0.854 | 26.9 µM
BL-41 (Burkitt lymphoma, suspension) | 0.66 | 4.94 µM
FADU (head and neck, adherent) | 0.787 | 13.4 µM
NCI-H82 (small cell lung carcinoma, suspension) | 0.919 | > 32 µM
COR-L88 (small cell lung carcinoma, adherent) | 0.801 | 19.2 µM
